The values that follow come from PMC4336329 (PLoS ONE, 2015).

In all, about 310,000 compounds went through this assay and about 2,200 (0.71%) showed an effect of 50% or more. The effect is printed as a negative number. Some of the results follow.

Sequence of human ether-à-go-go-related gene (hERG) potassium channel (Q12809 whole entry, looked up): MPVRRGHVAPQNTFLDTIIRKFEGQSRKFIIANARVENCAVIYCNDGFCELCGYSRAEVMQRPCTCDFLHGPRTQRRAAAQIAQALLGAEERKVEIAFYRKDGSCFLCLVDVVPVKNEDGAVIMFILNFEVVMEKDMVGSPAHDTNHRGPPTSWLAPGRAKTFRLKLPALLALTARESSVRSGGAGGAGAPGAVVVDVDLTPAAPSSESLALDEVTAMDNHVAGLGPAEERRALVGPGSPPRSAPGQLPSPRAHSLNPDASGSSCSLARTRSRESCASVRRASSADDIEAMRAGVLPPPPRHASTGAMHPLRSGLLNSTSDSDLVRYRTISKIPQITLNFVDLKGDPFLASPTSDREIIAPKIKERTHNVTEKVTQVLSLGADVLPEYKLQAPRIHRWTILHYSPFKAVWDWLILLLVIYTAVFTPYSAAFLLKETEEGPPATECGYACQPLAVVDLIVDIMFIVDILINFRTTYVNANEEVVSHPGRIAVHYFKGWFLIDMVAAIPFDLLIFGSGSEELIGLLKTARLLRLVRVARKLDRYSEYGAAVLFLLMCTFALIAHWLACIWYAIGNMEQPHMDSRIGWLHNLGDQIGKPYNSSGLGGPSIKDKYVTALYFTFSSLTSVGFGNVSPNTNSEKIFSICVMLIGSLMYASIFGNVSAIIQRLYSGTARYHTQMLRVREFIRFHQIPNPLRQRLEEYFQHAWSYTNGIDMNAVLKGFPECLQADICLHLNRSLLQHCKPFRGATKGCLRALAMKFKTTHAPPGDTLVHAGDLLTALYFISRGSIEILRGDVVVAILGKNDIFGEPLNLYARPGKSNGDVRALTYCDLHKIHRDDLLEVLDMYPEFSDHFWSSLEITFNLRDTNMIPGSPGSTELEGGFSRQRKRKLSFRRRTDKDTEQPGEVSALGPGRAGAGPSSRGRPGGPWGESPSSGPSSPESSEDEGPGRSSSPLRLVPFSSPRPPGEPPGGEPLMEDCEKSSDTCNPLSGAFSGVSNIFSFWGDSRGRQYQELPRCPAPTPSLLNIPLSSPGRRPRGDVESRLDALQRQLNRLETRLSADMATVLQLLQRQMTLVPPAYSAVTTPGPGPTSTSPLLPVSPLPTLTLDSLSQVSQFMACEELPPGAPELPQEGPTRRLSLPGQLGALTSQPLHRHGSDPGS

This experiment addresses human ether-à-go-go-related gene (hERG) potassium channel (human, UniProt Q12809). As to the kind of experiment: primary screen, population patch clamp on CHO cells stably expressing hERG.
Turning to `Cc1ccc(NS(=O)(=O)c2cccc(C(=O)NCC(c3ccco3)N3CCCC3)c2)cc1` (stereo not drawn), the “hERG current change (%, negative = inhibition) at 1uM” value was -9.09%. The figure for `C[C@]12C=CC(=O)C=C1CC[C@H]1[C@@H]3C[C@@H](O)[C@](O)(C(=O)CO)[C@@]3(C)C[C@H](O)[C@@]12F` is 11.6%; for `CCc1nnc(NS(=O)(=O)c2ccc(NC(=O)CCC(=O)O)cc2)s1` it is 19.5%. `Cc1ccc(S(=O)(=O)C2(C(=O)N3CCN(c4ccccc4F)CC3)CC2)cc1`: the “hERG current change (%, negative = inhibition) at 1uM” value is listed as 8.15%. For `CCC(C)[C@H](NC(=O)N1CC(=O)Nc2ccccc21)C(=O)N[C@@H](C(=O)O)c1ccccc1` (stereo partly drawn), the “hERG current change (%, negative = inhibition) at 1uM” value came to 17.2%. Take `CC1(C)CC(=O)C(C(C2=C(O)CC(C)(C)CC2=O)c2ccco2)C(=O)C1` (stereo not drawn): the “hERG current change (%, negative = inhibition) at 1uM” value amounted to 9.36%.

Consider `Cc1ccc(CNc2nc(N)c([N+](=O)[O-])c(NCc3ccccc3)n2)cc1`, for which the “hERG current change (%, negative = inhibition) at 1uM” value is listed as 12.9%. The figure for `Cc1oc2nc(SCCCC(=O)NCCCO)nc(N)c2c1C` is 11%. The figure for `CCC1(C)Cc2c(C#N)c(SC)nc(N3CCOCC3)c2CO1` (stereo not drawn) is 10.1%. In the case of `CCC(=O)Nc1sc2c(c1C#N)CCCCC2` it was 8.12%; in that of `COc1ccc(CNC(=O)C2CCN(S(=O)(=O)c3ccc(SC)cc3)CC2)cc1`, 11.3%; in that of `Cc1cc(C)cc(-n2nnc(C(=O)NCc3ccccc3Cl)c2N)c1`, 8.27%.

Turning to `CCCCn1c(O)c(C(C)=Nc2ccc(C(=O)O)cc2)c(=O)[nH]c1=O`, the “hERG current change (%, negative = inhibition) at 1uM” value came to 14.6%. In the case of `COc1cc2cc(C(c3nnnn3C(C)(C)C)N3CCc4ccccc4C3)c(=O)[nH]c2cc1OC` (stereo not drawn) it was -3.88%. The figure for `COCCC(=O)N1CCC(Oc2ccc(C(=O)NC(C)CCn3cccn3)cc2)CC1` (stereo not drawn) is 10.3%. The figure for `Cc1noc(C)c1CSCC(=O)OCC(=O)NC1CCCCC1` is 13.5%; for `CCOCc1nnc(NC(=O)C2CCN(C(=O)C3CC(=O)N(c4ccc(C)cc4)C3)CC2)s1` (stereo not drawn) it is 12.4%; for `COc1cc(NC(=O)C2CC(c3ccccc3O)=NO2)c(OC)cc1Cl` (stereo not drawn) it is 12.3%. `COc1cccc(CN2CCSCC2)c1`: the “hERG current change (%, negative = inhibition) at 1uM” value was 12%. In the case of `COc1cc(/C=N/n2cnnc2-n2nc(C)cc2C)cc([N+](=O)[O-])c1O` it was -2.73%; in that of `CC(c1ccccc1)N1C(=O)C2C3CCC(C3)C2C1=O` (stereo not drawn), 9.41%. With `COC(=O)c1ccc([N+](=O)[O-])c(CS(=O)(=O)c2ccc(Cl)cc2)c1`, the “hERG current change (%, negative = inhibition) at 1uM” value came to 8.08%.

Regarding `COCCCNC(=O)c1ccc([N+](=O)[O-])c(Cl)c1`, the “hERG current change (%, negative = inhibition) at 1uM” value is on record as 5.23%.

For the compound `CCOC(=O)C1CCCN(C(=O)c2ccc3oc(Cc4ccccc4)nc3c2)C1` (stereo not drawn), the “hERG current change (%, negative = inhibition) at 1uM” value is on record as -7.47%.
